# Experimental data reported in paper PMC4336329 (PLoS ONE, 2015).
# Screen size: about 310,000 compounds; about 2,200 (0.71%) showed an effect of 50% or more. The effect is printed as a negative number. Some of the results follow.
# Target: human ether-à-go-go-related gene (hERG) potassium channel (human, UniProt Q12809)
# Test: primary screen, population patch clamp on CHO cells stably expressing hERG
# Sequence of human ether-à-go-go-related gene (hERG) potassium channel (Q12809 whole entry, looked up): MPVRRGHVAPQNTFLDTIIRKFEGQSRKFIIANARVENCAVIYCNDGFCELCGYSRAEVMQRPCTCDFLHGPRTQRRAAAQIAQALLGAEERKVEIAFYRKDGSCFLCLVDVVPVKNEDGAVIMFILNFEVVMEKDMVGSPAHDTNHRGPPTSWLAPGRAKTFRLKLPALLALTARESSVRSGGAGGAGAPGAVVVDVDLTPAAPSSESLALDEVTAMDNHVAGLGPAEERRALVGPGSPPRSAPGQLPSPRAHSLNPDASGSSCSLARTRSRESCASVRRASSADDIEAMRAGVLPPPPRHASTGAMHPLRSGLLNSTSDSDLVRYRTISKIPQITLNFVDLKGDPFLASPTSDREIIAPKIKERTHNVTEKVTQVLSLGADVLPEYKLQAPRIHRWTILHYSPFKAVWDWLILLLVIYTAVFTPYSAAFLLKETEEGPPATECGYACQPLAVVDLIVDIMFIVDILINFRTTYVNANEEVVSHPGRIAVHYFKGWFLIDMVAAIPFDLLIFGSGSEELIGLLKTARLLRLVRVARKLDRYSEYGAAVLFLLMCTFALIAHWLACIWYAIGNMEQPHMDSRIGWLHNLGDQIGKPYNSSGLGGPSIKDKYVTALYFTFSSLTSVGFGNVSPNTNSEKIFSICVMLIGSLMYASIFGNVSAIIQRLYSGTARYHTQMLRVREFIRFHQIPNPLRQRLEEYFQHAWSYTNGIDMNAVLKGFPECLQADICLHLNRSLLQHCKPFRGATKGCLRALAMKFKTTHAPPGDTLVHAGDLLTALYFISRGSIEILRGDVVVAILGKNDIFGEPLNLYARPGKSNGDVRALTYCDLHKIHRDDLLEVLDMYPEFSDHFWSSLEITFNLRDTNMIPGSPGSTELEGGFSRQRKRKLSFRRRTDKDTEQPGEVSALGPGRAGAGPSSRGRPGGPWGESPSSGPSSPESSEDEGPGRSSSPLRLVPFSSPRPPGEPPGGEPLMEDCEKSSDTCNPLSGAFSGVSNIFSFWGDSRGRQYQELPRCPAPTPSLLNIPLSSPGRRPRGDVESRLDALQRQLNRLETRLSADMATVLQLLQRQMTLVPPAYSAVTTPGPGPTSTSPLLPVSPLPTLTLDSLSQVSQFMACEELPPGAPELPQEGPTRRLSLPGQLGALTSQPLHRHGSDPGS
row,SMILES,"hERG current change (%, negative = inhibition) at 1uM"
1,COC(=O)C1=CN(Cc2ccc(OC)c(OC)c2)C=C(C(=O)OC)C1c1ccc(F)cc1,4.21%
2,C=CCSc1nnc(NC(=O)Cc2ccc(OC)c(OC)c2)s1,15.5%
3,CCOc1ccc(S(=O)(=O)N(CC(=O)NN=C2CCN(C)CC2)c2ccc(C)cc2)cc1,-22.8%
4,Cc1cc(=O)n2nc(N3CCC(C(=O)NCc4cccc(Br)c4)CC3)sc2n1,12.3%
5,CCN(CC)CCNC(=O)c1ccc(Cl)c(S(=O)(=O)Nc2ccc(Cl)cc2)c1,-0.359%
6,CC1=C(C(=O)OC2CCCCC2)C(c2cccnc2)n2nnnc2N1 (centres unmarked),11.7%
7,CCCn1c(-c2cccc(F)c2)nc2c1c(=O)[nH]c(=O)n2Cc1ccccc1,16.1%
8,CC(=O)c1cccc(CN2CCC(CO)(CCCc3ccccc3)CC2)c1,-7.89%
9,Cc1ccc(NC(=O)CCN2CCN(C/C=C/c3ccccc3)CC2)cc1.Cl,-86.3%
10,NC(=O)c1ccccc1OCc1nc2ccccc2s1,11.3%
11,Cc1ccccc1N1CCN(CCC(=O)Nc2ccc(F)cc2)CC1,-13.8%
12,COc1ccc(OC)c(N(CC(=O)N2CCCC2)S(=O)(=O)c2ccc(OC)c(OC)c2)c1,9.52%
13,COc1ccc(C(=O)/C=C/NCc2ccc(F)cc2)cc1OC,11.6%
14,COc1cccc(-c2cc(C(=O)Nc3cc(OC)c(OC)c(OC)c3)no2)c1,6.25%
15,O=C1c2ccccc2C(=O)N1CCN1CCCCC1,-0.145%
16,CCCCN(C(=O)c1ccc(OC)c([N+](=O)[O-])c1)c1c(N)n(CCC)c(=O)[nH]c1=O,11.1%
17,O=C(CSc1nn(-c2ccc(F)cc2)c(=S)s1)NC1CCS(=O)(=O)C1 (centres unmarked),5.02%
18,CC(C)CCn1c(CN2CC(C)OC(C)C2)nc2c1c(=O)n(C)c(=O)n2C (centres unmarked),15.3%
19,CCOC(=O)N1CCN(CC(c2ccccc2)c2ccccc2)CC1,13.8%
20,NC(=O)c1nsc(C(=O)N(Cc2ccccc2F)C(C(=O)NCC2CCCO2)c2ccc(F)cc2)c1N (centres unmarked),-1.94%
21,Cc1cc(Nc2nc3ccccc3nc2Cl)n(-c2ccc([N+](=O)[O-])cc2)n1,-1.05%
22,Cc1ccc(S(=O)(=O)N2CC(C(=O)O)=CC[C@H]2c2ccc3c(c2)OCO3)cc1,7.09%

row,SMILES,"hERG current change (%, negative = inhibition) at 1uM"
1,COc1ccc(-c2nnc(Nc3ccc(OC)c(C(=O)N4CCCCC4)c3)c3ccccc23)cc1,12.4%
2,O=C1CSC2=NCN(c3ccc4c(c3)OCO4)CN12,-5.06%
3,COc1cc2c(cc1OC)C(C(=O)N1CCCC1)C(c1ccccc1F)N(C)C2=O (centres unmarked),15.6%
4,CCOc1ccc(-n2cnc3scc(-c4ccc(OC)c(OC)c4)c3c2=O)cc1,10.9%
5,C=CCNc1nc2ccccc2nc1NS(=O)(=O)c1cccs1,-2.29%
6,COc1ccc(N(CC(=O)NCCSCc2ccco2)S(=O)(=O)c2ccc(C)cc2)cc1,0.98%
7,CCCc1cnc(N2CCN(C(=O)c3ccc(OC)cc3)CC2)nc1,1.83%
8,CCNCc1cc([N+](=O)[O-])ccc1OCC.Cl,1.65%
9,CN(CC(=O)Nc1cccc2c1CCCC2)S(=O)(=O)c1ccccc1,-0.639%
10,CC(=O)N1CCCc2cc(S(=O)(=O)N3CCCC(C(=O)Nc4cccc(F)c4)C3)ccc21 (centres unmarked),12%
11,COc1ccccc1CNC(=O)Cc1csc(NC(=O)Nc2ccccc2OC)n1,2.57%
12,CCCCNC(=O)Cn1cnc2sc(C(=O)OCC)c(C)c2c1=O,8.3%
13,NC1=NC[C@@H](Cc2ccc(O)cc2)N1CCc1cccc2ccccc12,10.6%
14,O=C(NN=C1CCCC1)c1ccccc1OCCOc1ccccc1,5.04%
15,Cc1ccc(N(CC(=O)N2CCOCC2)S(C)(=O)=O)cc1,18.3%
16,Cn1c2ccccc2c2c(C(=O)N3CCC4(CC3)OCCO4)cn(C3CCCCC3)c(=O)c21,10.8%
17,COC(/C=C/Nc1ccc(C)cc1)=C(C#N)C#N,-10.6%
18,Cc1ccc(C2=NN(S(C)(=O)=O)C(c3ccc4c(c3)OCO4)C2)cc1 (centres unmarked),-1.85%
19,CCOCCCn1c(=S)[nH]c2cc(C(=O)NC3CCCCC3C)ccc2c1=O (centres unmarked),13.5%
20,CN(C(=O)C12CC3CC(CC(C3)C1)C2)C1(C)CCS(=O)(=O)C1 (centres unmarked),-2.04%
21,Cc1cccnc1CN1CCN(Cc2nc(Cc3cccc(F)c3)no2)CC1,6.2%
22,O=C(CCNS(=O)(=O)c1cccs1)Nc1ccccc1F,8.89%

row,SMILES,"hERG current change (%, negative = inhibition) at 1uM"
1,Nc1nnc(SCC(=O)N2CCN(c3ccccc3)CC2)n1-c1ccccc1,15.2%
2,COc1ccccc1NC(=O)c1cc(N)cc(C(=O)Nc2ccccc2OC)c1,-11.9%
3,CC(=O)c1ccc(Sc2nnc(C)s2)c([N+](=O)[O-])c1,12%
4,CCC(=O)Nc1cccc(C(=O)c2ccccc2)c1,9.33%
5,Cc1cc2ccccn2c1C(=O)c1cccc(F)c1,5.35%
6,COc1ccc(-c2c[n+]3c(n2-c2c(C)n(C)n(-c4ccccc4)c2=O)CCCCC3)cc1.[Br-],14.5%
7,NS(=O)(=O)c1cccc(NC(=O)C(Cc2ccccc2)NC(=O)c2ccccc2)c1 (centres unmarked),10.1%
8,Cc1cc(=O)n2c3c(sc2n1)C(=O)N(Cc1ccccc1)C3=O,7.16%
9,COc1ccccc1OCC(=O)NNC(=O)C1CCN(c2ncnc3sc(C)c(C)c23)CC1,10.4%
10,CCOC(=O)N1CCN(C(=O)Nc2ccc3nc(-c4ccccn4)c(-c4ccccn4)nc3c2)CC1,8.51%
11,CC(C)(C)C(Cn1ccnc1)NC(=O)c1ccc2nc(C3CC3)oc2c1 (centres unmarked),-7.48%
12,Cc1csc(NC(=O)CSc2nc3ccccc3c3c2CCCC3)n1,6.69%
13,CCC1=NN(C(=O)Cc2ccc([N+](=O)[O-])cc2)C(O)(c2ccncc2)C1 (centres unmarked),6.82%
14,CC1CCCCC1NC(=O)CCS(=O)(=O)c1ccc2c(c1)NC(=O)CS2 (centres unmarked),8.71%
15,CCCNC(=O)c1ccc(N2CCC3(CC2)CC(c2cccc(Br)c2)=NO3)c(NC(=O)c2ccc(Br)cc2)c1,5.67%
16,Br.COc1ccccc1C1=Nn2c(COc3ccccc3)nnc2SC1,16.6%
17,Cc1cc(NC(=O)c2ccccc2F)on1,9.42%
18,NC(=O)C1=CN(Cc2ccc(Cl)cc2)CCC1C(F)(F)F (centres unmarked),7.51%
19,CC(=O)N1CCc2cc(S(=O)(=O)NC(CC(C)C)C(=O)N3CCn4c3nc3ccccc34)ccc21 (centres unmarked),-16.3%
20,Cc1ccc(S(=O)(=O)CCC(=O)OCC(=O)NC(N)=O)cc1,13.7%
21,COc1ccc(CC(=O)N[C@@H](CCSC)C(=O)N2CCC3(CC2)NCCc2[nH]cnc23)cc1,8.35%
22,CSc1nc(-c2ccco2)cc(-c2ccccc2)c1C#N,9.54%

row,SMILES,"hERG current change (%, negative = inhibition) at 1uM"
1,CCC(C)c1ccccc1N1CC(C(=O)N(C)CC(=O)Nc2cccc(F)c2)CC1=O (centres unmarked),8.69%
2,CCCCN(CCCNC(=O)C1CCCN(S(=O)(=O)CC)C1)Cc1ccccc1 (centres unmarked),-5.14%
3,O=C(Nc1ccc(S(=O)(=O)Nc2ncccn2)cc1)C1CC(=O)N(c2ccc(Cl)cc2)C1 (centres unmarked),12.3%
4,COc1ccc(C(=O)N2CCC(n3nccc3NC(=O)C3CC3)CC2)cc1F,0.5%
5,O=C(CSC1=NS(=O)(=O)c2cc(F)ccc2N1)Nc1ccccc1F,10.3%
6,COc1ccccc1C(=O)NNC(=O)C12CC3CC(CC(C3)C1)C2,12.4%
7,CC(C)Sc1nc2ccccc2n1CC(N)=O,11.5%
8,N/C(=N/OC(=O)c1ccccc1Cl)c1nonc1N,7.04%
9,Cn1cnnc1SCc1ccc(C(=O)N=Nc2c(O)n(Cc3ccc(Cl)cc3)c3ccccc23)cc1,4.26%
10,Cc1ccc(S(=O)(=O)NC(C)C(=O)NC(C)c2cccs2)cc1 (centres unmarked),15.2%
11,COc1ccc(OCCCNCCc2ccccc2)cc1.O=C(O)C(=O)O,-20.9%
12,COc1ccc(-c2nn(CCC#N)cc2C(=O)Nc2ccccc2Cl)cc1,10.5%
13,Clc1nc(NCCN2CCOCC2)nc(NCc2ccccc2)n1,2.26%
14,Cc1ccnc(N2C(=O)c3ccccc3C2Nc2ccccc2Cl)c1 (centres unmarked),14.9%
15,Cc1ccccc1NC(=S)c1ccc2ccccc2n1,18.2%
16,Cc1ccccc1N1C(=O)C(Cl)=C(N2CCOCC2)C1=O,15.9%
17,CCC(C)n1c(SCc2ccc([N+](=O)[O-])cc2)nc2ccsc2c1=O (centres unmarked),13.2%
18,Cc1ccccc1-c1nnc(SCC#N)o1,9.27%
19,Clc1ccc(OCc2nc(-c3ccc(Br)o3)no2)cc1,-6.15%
20,Cc1cc(-c2[nH]nc3c2C(c2ccsc2)C(C#N)=C(N)O3)c(C)s1 (centres unmarked),8.05%
